Experimental data reported in the supplement of paper PMC3334620.
In all, about 33,000 sequences were measured (“E-score (-0.5 to 0.5)”: median about -0.054, highest 2% from about 0.39 on). The list shows a part of the results.

Each sequence was assayed against Ylr278c (UniProt Q05854) (assay: PBM E-score (8-mer binding enrichment) (E-score (-0.5 to 0.5)); higher = stronger / more preferred TF binding; most listed sequences are background and not binding sites). Details: protein concentration: 200 nM; construct: GST-DNA-binding domain.
Method in brief: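 For each ungapped eight-base word taken together with its reverse complement, the Universal PBM Analysis Suite assigned an E-score. Binding data came from GST-tagged yeast transcription factors, applied at about 100-200 nM, on universal all-10-mer Agilent arrays made double-stranded by primer extension. Fluorescent anti-GST marked bound protein, and scans were normalised with masliner.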

Sequence | PBM E-score
GTCACCAC | 0.0336
ACCAACGA | -0.0973
ACGTTACG | -0.291
TATCCCAA | -0.058
ACGACACG | 0.0687
GTAACCCA | -0.146
AGACTTAG | -0.162
ACTAAGAA | 0.014
AGGAACAA | -0.0842
TACATTGA | -0.145
TATGAGGA | -0.191
AGTTCGGC | 0.185
CCCACTCA | -0.26
CCTAGTTA | 0.0482
CATCGTAG | -0.277
ACGCTTAC | -0.126
ACGAGTCC | 0.0886
GGCCATAC | 0.0576
GGACCAAA | 0.187
CATATCAC | -0.0993
ATTGTAGC | -0.032
AGGTATCA | -0.218
ATCTATCC | 0.179
CTGAGGAA | -0.133
CTGCTATC | -0.0214

Sequence | PBM E-score
GGTCTTGA | 0.0695
AGGGTTAA | -0.316
AATTCGGG | 0.215
AAAGCCAG | -0.222
AAAACGCA | 0.00568
ACATTTGC | 0.00986
ACAGAATG | -0.164
ACAACCCG | 0.0591
GGCCGCTA | 0.141
ATAGTATC | 0.0193
AATGGACC | 0.0413
AGCAAGTA | -0.21
ACCTGATG | -0.177
CATGACAA | -0.12
GAGAATAC | 0.153
CCGCATGA | -0.0148
CCCCGTCC | 0.252
AAGCCGCG | 0.266
CAGCCAGG | -0.302
ACGCCATA | -0.254
CCTCTAGC | -0.175
ATACCCAT | -0.118
CTTTGTAC | -0.298
AACACGTG | 0.0455
ACTGCCAG | -0.133

Sequence | PBM E-score
GGTCTTAA | -0.193
CTAGGCCA | -0.0375
TCTTGAAA | 0.00708
TGACTTAA | -0.207
ACACAAGC | -0.114
ACACTACT | -0.0995
CGAATCCC | 0.262
AAATTCAA | 0.0115
CATCCTAA | -0.093
GGCCAAAA | -0.0641
AGATGCGG | 0.211
CATAACAC | -0.168
CACCATAG | -0.261
CCAACCTA | -0.0214
CATGCAAA | -0.0172
CATCTCAG | -0.161
ACGACACC | 0.0263
CAGCTGCG | 0.0853
ACCGTAGA | 0.022
AACCACCG | 0.214
ACGCGGAA | 0.366
CTATCGAA | -0.109
GTACTTCA | 0.106
AGCACTCA | -0.0941
GACATTTA | -0.0358

Sequence | PBM E-score
CATCATCA | -0.105
AAGGGCGG | 0.238
CGTACACG | -0.0955
CGTTGGAC | -0.198
AAAGAAGA | -0.0104
ACGGTGGC | -0.081
CCGGTATC | 0.32
AACGCAGG | -0.131
ACCCGGTG | 0.277
CAAATGGC | 0.0232
ACGATGAA | -0.0538
CGACGAAA | -0.00274
CGGTCTGC | 0.117
AATTCCAT | 0.0569
ATTGTCCC | 0.0603
GATAACCC | 0.0616
GACTTGGA | 0.0724
AACTTTAG | -0.125
AATACACG | 0.0135
AGCCCTCC | -0.00851
CGAGGCGA | -0.12
AGGCGGAC | 0.386
CGACATGC | 0.0489
AGTTACGA | 0.0146
GCTGAAGC | -0.155

Sequence | PBM E-score
CTCTCTTC | -0.152
AAGCTCAA | -0.279
GATATTAA | 0.214
AGCGAGCG | 0.0111
GATCTTAC | -0.0789
GACACGTC | -0.0904
CTTCAAGA | -0.173
AGGCTTCG | 0.185
ACGCTCCG | 0.399
GATCTTAA | -0.151
GCACGCGC | 0.0902
ACGAGATC | -0.105
ACTGGGCT | -0.0216
AGTAATTG | -0.0243
GTTAAGGA | -0.147
CTTGCCTA | -0.349
AGACTGAC | -0.202
ATGTATAG | -0.156
CACCGGCA | 0.328
CTGCGTCA | -0.257
AGTTCGTC | -0.1
ATTGCCTA | -0.239
CGCGTCCC | 0.0634
AGTGCCTA | -0.359
ACTGCGAG | -0.0763

Sequence | PBM E-score
AATTTGGG | -0.134
ATCCCAAT | -0.189
AGAGCGCA | -0.126
AACTCGAC | -0.0215
AAGAGGGT | -0.301
AGTCAATC | -0.124
CTAGCATC | -0.167
ACAACTGT | -0.207
CGGGACGC | 0.117
AAGAGCTC | 0.0111
ACCCGATC | 0.119
AAGTGCAG | -0.233
CACCTAGG | -0.172
CTCTCTAA | -0.358
ATCTCCTA | -0.149
CTGAGCCC | -0.111
ACTACACC | 0.00692
AGGTCTCC | -0.0687
CAATAGAA | -0.18
ACGTGCAC | -0.185
GCCTGAGC | -0.244
ACTACGGG | 0.183
GTGGCAAA | -0.0257
ATGGGGGG | -0.191
GAGCATTA | -0.111

Sequence | PBM E-score
AGGAACGC | -0.0244
CTTTCGGA | 0.451
CCTCAGGC | -0.109
CGATAAAA | 0.217
ACCCTTAC | -0.0675
AACCTTGC | -0.14
CTTTCAAC | -0.0592
GTCGTCCA | -0.0332
ACATATGA | -0.152
AGGGTTAG | -0.249
CGGACTCC | 0.423
AAGACCGG | 0.334
CACGTCTG | -0.205
CAGCTAGG | -0.173
ACGTCACA | -0.158
CGATATAG | -0.0776
CGGTGAAC | 0.144
GGGCGACC | -0.00494
GCGGAACA | 0.344
AAATACAC | -0.0158
CAACTGCA | -0.174
CTTTGTTA | -0.0347
